{"source": "PubChem BioAssay AID360", "about": "(National Center for Advancing Translational Sciences (NCATS), 2006)", "note": "Hit rate of the full screen: of about 48,000 compounds, about 550 (1.1%) were called active. Another 4% or so got no clear call; they are omitted. No stated cut-off is given here; in the data, active means potency below about 15 µM; inconclusive means mostly about 16 µM to 33 µM; inactive means weaker than that. This is one part of the list. Potency means the concentration at half of the fitted maximal effect.", "data": [{"biological_target": "Lysosomal acid glucosylceramidase (Homo sapiens) (UniProt P04062)", "sequence (P04062 whole entry, looked up)": "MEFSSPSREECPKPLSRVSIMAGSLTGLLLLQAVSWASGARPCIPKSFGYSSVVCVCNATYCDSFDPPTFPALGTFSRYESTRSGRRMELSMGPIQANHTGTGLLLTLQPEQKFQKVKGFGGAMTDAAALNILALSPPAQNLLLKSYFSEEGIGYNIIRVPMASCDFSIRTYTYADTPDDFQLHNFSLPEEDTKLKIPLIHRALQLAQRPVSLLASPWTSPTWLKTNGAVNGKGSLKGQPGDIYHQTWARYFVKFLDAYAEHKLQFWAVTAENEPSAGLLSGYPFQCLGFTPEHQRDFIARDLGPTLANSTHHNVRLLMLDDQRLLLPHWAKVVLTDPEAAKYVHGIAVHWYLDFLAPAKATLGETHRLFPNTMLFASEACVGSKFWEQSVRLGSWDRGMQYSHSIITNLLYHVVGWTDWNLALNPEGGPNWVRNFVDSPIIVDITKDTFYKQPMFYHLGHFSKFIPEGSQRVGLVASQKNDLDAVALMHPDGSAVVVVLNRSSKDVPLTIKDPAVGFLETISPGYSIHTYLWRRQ", "assay": "Glucocerebrosidase;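 further: the screen sought inhibitors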", "conditions": "purified enzyme, resorufin glucoside fluorescence (screen aimed at inhibitors), 20 min", "how_it_was_run": "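Compounds titrated against 0.2 nM normal enzyme, 30 uM resorufin beta-D-glucopyranoside substrate, citrate/phosphate buffer with taurocholate and tween-20, pH 5.9. Reaction ran 20 min at room temperature; fluorescence (Ex 548/Em 600) gave AC50.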", "values": [{"compound": "Cc1oc(-c2cccc(Cl)c2)nc1CN1CCC(C(=O)NCc2ccco2)CC1", "Potency": "inactive: > 76.9 µM"}, {"compound": "O=c1[nH]c2c(s1)C(c1ccccc1)C1C3CCC(C3)C1S2", "note": "(centres undefined)", "Potency": "inactive: > 15.4 µM"}, {"compound": "Cc1oc2cc(OCC(=O)O)ccc2c(=O)c1Oc1ccccc1", "Potency": "inactive: > 76.9 µM"}, {"compound": "COc1cccc(CNCCOCCO)c1OC", "Potency": "inactive: > 76.9 µM"}, {"compound": "O=C(NCCSCc1ccco1)Nc1cccc(Cl)c1", "Potency": "inactive: > 76.9 µM"}, {"compound": "Cc1noc(C)c1C(=O)Nc1sc(C)c(-c2ccccc2)c1C#N", "Potency": "inactive: > 76.9 µM"}, {"compound": "COc1cc(-c2nnc(SCC(=O)N3CCCC3)o2)cc(OC)c1OC", "Potency": "inactive: > 76.9 µM"}, {"compound": "c1ccc2c(Oc3ccc4c(c3)OCO4)nncc2c1", "Potency": "inactive: > 76.9 µM"}, {"compound": "COc1ccc(NC(=O)NC2(C(=O)N3CCCCCC3)CCCCC2)cc1", "Potency": "inactive: > 76.9 µM"}, {"compound": "O=C(N1CCC(O)(c2cccnc2)CC1)C12CC3CC(CC(C3)C1)C2", "Potency": "inactive"}, {"compound": "Cc1ccc(S(=O)(=O)NC(CC(=O)O)c2ccccc2)c(C)c1", "note": "(centres undefined)", "Potency": "inactive: > 76.9 µM"}, {"compound": "Cc1ccc(C(=O)NCc2nnc(SCC(=O)Nc3sc4c(c3C#N)CCCC4)n2C)cc1", "Potency": "inactive: > 76.9 µM"}, {"compound": "O=C(NCC12CC3CC(CC(C3)C1)C2)c1cc2n(n1)C(C(F)(F)F)CC(c1ccco1)N2", "note": "(centres undefined)", "Potency": "active: 13.1 µM"}, {"compound": "COc1nc2c(C)cccc2cc1-c1noc(-c2ccco2)n1", "Potency": "inactive"}, {"compound": "CC(C)COC(=O)C(N)C(C(=O)OCC(C)C)c1ccccc1", "note": "(centres undefined)", "Potency": "inactive: > 76.9 µM"}, {"compound": "O=C(Nc1ccc(N2CCN(Cc3ccccc3)CC2)cc1)c1cccnc1", "Potency": "inactive: > 76.9 µM"}, {"compound": "COc1ccc(C2C3=C(CC(C)(C)CC3=O)Oc3ncn(Cc4ccco4)c(=N)c32)cc1", "note": "(centres undefined)", "Potency": "inactive: > 76.9 µM"}, {"compound": "Cc1cc(C)n2nc(SCC(=O)NCc3ccco3)nc2n1", "Potency": "inactive: > 76.9 µM"}, {"compound": "O=C(CSc1nnc(Cc2ccccc2)n1-c1ccc(Cl)cc1)N1CCOCC1", "Potency": "inactive: > 76.9 µM"}, {"compound": "C=CCOc1cccc(C2/C(=C(/O)c3ccccc3)C(=O)C(=O)N2CCCN2CCOCC2)c1", "note": "(centres undefined)", "Potency": "inactive: > 76.9 µM"}, {"compound": "O=C(c1ccccc1)N1CCN(CC#Cc2ccccc2)CC1", "Potency": "inactive: > 76.9 µM"}, {"compound": "Cc1ccc2nc(NC3=NCN(Cc4cccnc4)CN3)nc(C)c2c1", "Potency": "inactive: > 76.9 µM"}, {"compound": "COC(=O)Nc1nnc(Cc2ccc(OC)cc2)s1", "Potency": "inactive: > 76.9 µM"}, {"compound": "COc1ccccc1OCC(=O)Nc1ccccn1", "Potency": "inactive: > 76.9 µM"}, {"compound": "CC(C)c1ccc(C(=O)N2CCN(CCO)CC2)cc1", "Potency": "inactive: > 76.9 µM"}, {"compound": "CC1(C)CC(=O)C=C(Nc2ccccn2)C1", "Potency": "inactive: > 76.9 µM"}, {"compound": "COc1cccc(CNC(=O)CN(C)S(=O)(=O)c2cnc[nH]2)c1", "Potency": "inactive: > 76.9 µM"}, {"compound": "CCOc1cc(C(=O)Nc2ccc3c(c2)OCO3)ccc1OC(F)F", "Potency": "inactive: > 76.9 µM"}, {"compound": "Fc1cccc(NCc2cn3ccccc3n2)c1", "Potency": "inactive: > 76.9 µM"}, {"compound": "NC(=O)C1CCN(C(=O)CSCc2ccccc2Cl)CC1", "Potency": "inactive: > 76.9 µM"}, {"compound": "O=C(NCCc1ccccc1)C1CCN(S(=O)(=O)N2CCC3(CC2)OCCO3)CC1", "Potency": "inactive: > 76.9 µM"}, {"compound": "c1cnc(N2CCN(c3nc4ccccc4n4cnnc34)CC2)nc1", "Potency": "inactive: > 76.9 µM"}, {"compound": "O=C(CN1C(=O)c2ccccc2S1(=O)=O)Nc1ccc(S(=O)(=O)N2CCCCCC2)cc1", "Potency": "inactive: > 76.9 µM"}, {"compound": "COc1ccc(OCC(O)Cn2c(Nc3ccccc3)nc3c2c(=O)n(C)c(=O)n3C)cc1", "note": "(centres undefined)", "Potency": "inactive: > 76.9 µM"}, {"compound": "Fc1ccc(C(c2nnnn2Cc2cccs2)N2CCN(C3CCCC3)CC2)cc1", "note": "(centres undefined)", "Potency": "inactive: > 76.9 µM"}, {"compound": "Cc1c(NC(=O)OCCNC(=O)Nc2ccccc2)sc(=S)n1C", "Potency": "inactive: > 76.9 µM"}, {"compound": "CCN(Cc1cc2ccccc2[nH]c1=O)C(=O)C(C)C", "Potency": "inactive: > 76.9 µM"}, {"compound": "CCCS(=O)(=O)N1CCCC(C(=O)NCc2ccco2)C1", "note": "(centres undefined)", "Potency": "inactive: > 76.9 µM"}, {"compound": "COc1ccc(OC)c(C(=O)c2coc3ccc(O)c(CN4CCOCC4)c23)c1", "Potency": "inactive: > 76.9 µM"}, {"compound": "COc1ccc(-c2nnc(SCC#CCO)o2)cc1OC", "Potency": "inactive: > 76.9 µM"}, {"compound": "C=CCn1c(CNC(=O)CCC)nc2ccccc21", "Potency": "inactive: > 76.9 µM"}, {"compound": "COCCNC(=O)C(c1ccccc1)N(C(=O)Cn1nnc2ccccc21)c1cccnc1", "note": "(centres undefined)", "Potency": "inactive: > 76.9 µM"}, {"compound": "CC(=O)Nc1nc(CCC(C)C)cc2c1c(=O)oc1ccccc12", "Potency": "inactive: > 76.9 µM"}, {"compound": "Cc1sc2ncnc(OCC(=O)NCc3cccs3)c2c1C", "Potency": "inactive: > 76.9 µM"}, {"compound": "O=C(c1ccccc1C(F)(F)F)N1CCN(S(=O)(=O)c2ccccc2)CC1", "Potency": "inactive: > 76.9 µM"}, {"compound": "Cc1ccc(N(C(C)C(=O)N2CCCCC2)S(C)(=O)=O)cc1C", "note": "(centres undefined)", "Potency": "inactive: > 76.9 µM"}, {"compound": "N#Cc1c(N)c(C(=O)c2ccccc2)n2c1CCCC2", "Potency": "inactive: > 76.9 µM"}, {"compound": "O=C(NCCc1ccccc1)C1CCN(c2nc3ccccc3o2)CC1", "Potency": "inactive: > 76.9 µM"}, {"compound": "Cc1cc(S(=O)(=O)NC2CCCC2)ccc1F", "Potency": "inactive: > 76.9 µM"}, {"compound": "Cc1ccc(NC(=O)CN(C)S(=O)(=O)c2cccc3nsnc23)cc1", "Potency": "inactive: > 76.9 µM"}, {"compound": "O=C(NC1(C(=O)NC2CCCC2)CCCCC1)c1ccc2c(c1)OCO2", "Potency": "inactive: > 76.9 µM"}, {"compound": "CSc1ccc(S(=O)(=O)NCc2ccc(Cl)cc2)cc1", "Potency": "inactive: > 76.9 µM"}, {"compound": "Cn1c(=O)c2c(nc(NCc3ccc4c(c3)OCO4)n2C)n(C)c1=O", "Potency": "inactive: > 76.9 µM"}, {"compound": "C=CCn1c(=O)c2ccccc2n2c(SCC(=O)/C(C#N)=C(\\C)N)nnc12", "Potency": "inactive: > 76.9 µM"}, {"compound": "O=C(c1ccco1)N(Cc1nc2ccccc2c(=O)[nH]1)C1CCCC1", "Potency": "inactive: > 76.9 µM"}, {"compound": "Cc1nc(SC2CC(=O)N(c3ccccc3)C2=O)nc2c1CCCC2", "note": "(centres undefined)", "Potency": "inactive: > 76.9 µM"}, {"compound": "Cc1cc(C)n(S(=O)(=O)c2cc(C)c(C)cc2C)n1", "Potency": "inactive: > 76.9 µM"}, {"compound": "O=C(CSc1nnc(-c2ccccc2O)o1)N1CCc2ccccc2C1", "Potency": "inactive: > 76.9 µM"}, {"compound": "CCOc1ccccc1CN1C(=O)NC(C)(c2ccccc2)C1=O", "note": "(centres undefined)", "Potency": "inactive: > 76.9 µM"}]}]}
